# Experimental data taken from PubChem BioAssay AID1240 (Sanford-Burnham Center for Chemical Genomics, 2008).
# The campaign covered roughly 50,000 compounds. About 800 (1.6%) showed an effect of 50% or more. Some of the results follow.
# Target: Bcl-2-like protein 10 (Homo sapiens) (UniProt Q9HD36)
# Assay: Phenotype converters, Bcl-B/TR3 peptide binding displacement, primary biochemical FP (AID 1240);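 further: 0% = Bcl-B with tracer peptide and DMSO and 100% = tracer peptide lacking Bcl-B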
# Settings: GST-Bcl-B / FITC-TR3 peptide fluorescence polarization; stronger effect = higher value; compound at 3.75 mg/L
# Sequence of UniProt Q9HD36 (Q9HD36 whole entry, looked up): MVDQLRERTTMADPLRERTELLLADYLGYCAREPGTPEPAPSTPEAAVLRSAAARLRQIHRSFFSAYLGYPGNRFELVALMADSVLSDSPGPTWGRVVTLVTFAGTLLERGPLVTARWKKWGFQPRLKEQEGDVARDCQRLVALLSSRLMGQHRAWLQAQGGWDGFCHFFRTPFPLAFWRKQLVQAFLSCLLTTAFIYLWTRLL
row,SMILES,displacement [%]
1,O=[N+]([O-])c1cccc(/C=N/Nc2nnc3c(n2)[nH]c2ccccc23)c1,-9.1
2,COc1ccc(C/C(N)=N/OC(=O)COc2ccc(Br)c(C)c2)cc1,-1.7
3,Cc1nn(C(=O)COc2ccc(Cl)cc2)c(C)c1Sc1ccccc1[N+](=O)[O-],5.7
4,COc1ccccc1/C=C/C(=O)c1c(-c2ccccc2)c2cc(Cl)ccc2[nH]c1=O,-15.5
5,N#Cc1c(-c2cccc(Br)c2)c(C#N)c2nc3ccccc3n2c1N,109
6,COc1ccc(C(=O)NC(=S)Nc2ccc(I)cc2)cc1,15.7
7,O=C(c1ccc(Cl)c([N+](=O)[O-])c1)N1CCN(C/C=C/c2ccccc2)CC1,8.4
8,Cc1cc(C)n2c(SCCO)nnc2n1,10.6
9,COc1ccccc1N/C(=N/S(=O)(=O)c1ccccc1)c1ccccc1,11.9
10,Cc1ccc(N=C(Nc2ccc(C)cc2)c2ccccc2)cc1,20.9
11,O=C(COc1ccc(Br)cc1)Nc1cccc(NC(=O)c2cccc(Cl)c2)c1,15.6
12,CCOC(=O)C1=C(C)N=c2s/c(=C\c3ccc(-c4ccccc4C(=O)O)o3)c(=O)n2C1c1cccc(OC)c1 (centres undefined),-23.4
13,CCC(=O)NC(c1ccc(N(C)C)cc1)c1ccc2cccnc2c1O (centres undefined),-31.7
14,CCC(C)c1ccc(NC(=O)C2CC2)cc1 (centres undefined),-3.9
15,Cc1ccsc1/C=C1/SC(=S)N(CCCCCC(=O)O)C1=O,-9.6
16,N#C/C(=C/c1ccco1)c1nc(-c2cc3ccccc3oc2=O)cs1,-1.2
17,COC(=O)C1=C(C)N(c2ccccc2F)C(=O)/C1=C\c1sccc1C,7.8
18,Cc1ccc2[nH]c3nc(C)cc(C)c3c(=O)c2c1,2.7
19,Cc1ccc(C(=O)c2ccc(Br)cc2)cc1S(=O)(=O)Nc1ccc(Cl)cn1,-0.7
20,CCOC(=O)c1c(NC(=O)C2c3ccccc3Oc3ccccc32)sc(C(C)=O)c1C,-2.7
21,Cc1ccc(C(C)C)c(OCC(=O)Nc2ccc(I)cc2Cl)c1,0.8
22,O=C1/C(=C/c2ccco2)SC(=S)N1c1ccc(F)cc1,7.9

row,SMILES,displacement [%]
1,CCOC(=O)C1=C(O)CCn2c1nc1ccccc12,9.5
2,CCN(CC)S(=O)(=O)c1ccc(Cl)c(C(=O)Nc2nnc(-c3ccccc3)s2)c1,-5.1
3,COc1ccccc1OCCCCOc1c(C)cccc1C,-11.6
4,Cc1ccccc1OCCOc1ccc(/C=N/n2cnnc2)cc1,4.1
5,Cc1ccc([N+](=O)[O-])cc1NC(=O)C1CC(O)CN1C(=O)Oc1ccccc1 (centres undefined),-9.7
6,N#Cc1c(N2CCCCC2)ncc2cc3ccccc3nc12,0.8
7,O=C(CSc1n[nH]c(-c2ccccc2)n1)c1ccc(Cl)cc1,9.4
8,COc1ccccc1C1C(C(=O)OCCOc2ccccc2)=C(C)NC2=C1C(=O)CCC2 (centres undefined),-15.6
9,O=C1c2ccc(-c3nc4ccccc4c(=O)o3)cc2C(=O)N1C1CCCCC1,7.3
10,O=C(CCc1ccccc1)Nc1ccc2c(c1)OCCO2,-8.4
11,C/C(=N\NC(=O)COc1ccc(Cl)cc1Cl)c1cccc([N+](=O)[O-])c1,29.4
12,Cc1ccc(-c2cc(C(=O)NCc3ccccc3)c3ccccc3n2)o1,9.4
13,COc1ccc(/C=C2\S/C(=N/N=C/c3ccc(OC)cc3)N(c3ccc(O)cc3)C2=O)cc1,14.4
14,O=C(c1cccc(Cl)c1)N1CCc2ccccc21,5.1
15,Cc1cc2c(cc1C)CN(c1cccc(C(=O)N/N=C/c3ccc(N(C)C)cc3)c1)C2,7.1
16,CC(C)(C)N1C(=O)c2ccc(C(=O)Nc3cccc(I)c3)cc2C1=O,-14.8
17,COC(=O)C1=C(C)NC(=O)NC1c1cc(Cl)c(O)c(OC)c1 (centres undefined),2.8
18,Nc1nc(-c2ccccc2)c(-c2ccccc2)n1N,-22.5
19,CCN(CC)CCSc1nc(O)c(CCC(C)C)c(=O)[nH]1,-4.2
20,O=C(O)c1ccccc1NC(=O)C12CC3CC(CC(C3)C1)C2,6.3
21,O=C(c1cc2n(n1)C(C(F)(F)F)CC(c1ccc(Br)cc1)N2)N1CCCC1 (centres undefined),-2.8
22,CC1(C)CC(=O)C(C=NCC2CCN(C(=O)Nc3ccccc3)CC2)=C(O)C1,0.4

row,SMILES,displacement [%]
1,Cc1cc2c(nc3s/c(=C\c4cccc(Cl)c4)c(=O)n32)c(Br)c1C,2.5
2,Cc1cc(Cl)cc(Cl)c1OCCNCCO,-1
3,COc1ccc(CNCc2ccccn2)cc1OC,-7.3
4,CCOC(=O)c1c(NC(=O)c2sc3cc(C)ccc3c2Cl)sc(C(N)=O)c1C,15.9
5,O=C(c1ccc(OCc2ccccc2)cc1)c1coc2ccc(O)cc12,-9.6
6,CCc1ccccc1NC(=O)c1c(-c2ccccc2Cl)noc1C,2.7
7,C=CCc1cccc(/C=N/N=C2c3ccccc3Cc3ccccc32)c1O,13.9
8,CCOCCOC(=O)C1=C(C)NC2=C(C(=O)CCC2)C1c1cc(OC)c(OC)c(OC)c1 (centres undefined),7.9
9,Cc1ccc2nc(SCC(=O)Nc3nc4ccccc4s3)[nH]c2c1,-29.3
10,CC(=O)Nc1nonc1-c1nc2ccccc2n1Cc1ccccc1,49.8
11,Cc1cc(C)c2nc3s/c(=C\c4ccc(-c5cc([N+](=O)[O-])c(C)cc5C)o4)c(=O)n3c2c1,-20.8
12,CC(=O)Nc1ccc(NC(=O)CCC(=O)O)cc1,14.3
13,CCN(CC)S(=O)(=O)c1ccc(N=Cc2c(C)[nH]n(-c3ccc(Cl)cc3)c2=O)cc1,-9.1
14,CC(=C=CC(C)(C)C1OCC(C)(C)CO1)CCC=C(C)C,10.8
15,COc1ccc(C(C)NC(=O)c2ccc(Br)cc2)cc1 (centres undefined),-13
16,CCOC(=O)c1c(NC(=O)CSc2nncn2C)sc2c1CCCC2,12.2
17,O=C1NC(=S)S/C1=C\c1cn(CCOc2ccccc2F)c2ccccc12,-62.3
18,COc1ccc(C2CC(=O)C3=C(C2)Nc2ccccc2NC3c2ccc(F)c(F)c2)cc1 (centres undefined),8.2
19,COc1ccc(S(=O)(=O)N(CC(=O)N2CCCC2)Cc2ccccc2)cc1,3.9
20,COc1ccc(NC(=O)Nc2ccccc2C(F)(F)F)cc1,8.4
21,Fc1ccc(-c2noc(/C=C/c3ccccc3)n2)cc1,-12.2
22,Cn1c(=O)c(-c2ccccc2N)nc2ccccc21,-5.4

row,SMILES,displacement [%]
1,Cn1c(=O)n(C)c2cc(/C=N\NC(N)=S)ccc21,-8.9
2,CCOc1ccc(S(=O)(=O)N(CC(=O)Nc2cccc(C(C)=O)c2)c2ccc(C)cc2)cc1,5.3
3,CCN(CC)C(=O)CCc1ccccc1,4.5
4,Cn1c(=O)cc(-c2ccccc2)c2ccccc21,7.4
5,COc1ccccc1C/C(N)=N/OC(=O)COc1ccc(C)cc1C,-13.4
6,O=[N+]([O-])c1cccc(/C=N/Nc2cc(N3CCCC3)nc(N3CCCC3)n2)c1,15.1
7,COc1ccc(C=C2C(=O)N(C)C(=O)N(C)C2=O)c(OC)c1OC,-10.4
8,Cc1c(NC(=O)/C=C/c2cccc([N+](=O)[O-])c2)cccc1-c1nc2ncccc2o1,74.8
9,CS(=O)(=O)c1ccc2nc(NC(=O)c3ccco3)sc2c1,12
10,Cc1ccnc(NC(=O)CSc2nc3ccccc3[nH]2)c1,4.2
11,CCOc1ccc2cc(S(=O)(=O)N3CCN(c4ccccc4)CC3)ccc2c1,-2.6
12,COc1ccc(OC)c(NC(=S)NC(=O)/C=C/c2ccccc2)c1,13.1
13,CN(C)c1ccc(C2N(C)c3ccccc3N2C)cc1,5.5
14,Nc1ccc(Cl)c(-c2nc3cc(Cl)ccc3o2)c1,12.6
15,COc1cc(OC)c(OC)cc1CNCC1OCCc2ccccc21 (centres undefined),10.6
16,COCCNC(=O)CN(c1cc(Cl)ccc1OC)S(=O)(=O)c1ccc(C)c([N+](=O)[O-])c1,8.4
17,COc1cccc(N2C(=O)C(=O)/C(=C(\O)c3ccccc3)C2c2ccc(Br)cc2)c1 (centres undefined),3.3
18,COc1ccccc1C1(O)CC(c2ccc(C)cc2)NC(c2ccc(C)cc2)C1C (centres undefined),11.7
19,O=C(c1ccccc1F)N1CCN(c2ccc([N+](=O)[O-])c3cccnc23)CC1,10.3
20,COC(=O)c1ccccc1-c1ccc(/C=C2\C(=O)NN(c3ccccc3)C2=O)o1,15.4
21,CC(=O)Nc1ccc(S(=O)(=O)NNC(=O)c2ccccc2Cl)cc1,10.4
22,COc1ccccc1CN1CCN(Cc2ccco2)CC1,-15

row,SMILES,displacement [%]
1,COc1ccc(C)cc1NC(=O)c1cccnc1,20.4
2,CN(C)c1ccc(-c2c(C#N)c(N)[nH]c(=S)c2C#N)cc1,6.5
3,N#Cc1c(N)nc(SCC(=O)c2ccccc2)c(C#N)c1-c1ccc(Cl)cc1,4
4,CC1N(c2ccccn2)c2ccccc2N1c1ccccn1,-10.6
5,CCOc1ccc(/C=C2/C(=O)NN(c3ccccc3)C2=O)cc1,-1.6
6,O=C(NC(=S)Nc1ccc(Cl)cc1)c1ccc([N+](=O)[O-])cc1,-4.2
7,O=[N+]([O-])c1cc2c(cc1C=Nc1cc(Cl)cc(Cl)c1)OCO2,-7.8
8,COc1ccc([N+](=O)[O-])cc1-c1ccc(/C=C(/C#N)C(=O)Nc2cccc(Br)c2)o1,7.6
9,C=CCN(CC=C)C(=O)C1CC(=O)N(c2ccc(Br)cc2)C1 (centres undefined),10.8
10,COc1ccc(NC(=O)c2cccc(Cl)c2Cl)cc1OC,-3.4
11,O=C(Nc1ccccc1C(=O)O)c1ccc(Cl)c(Cl)c1,3.9
12,COc1ccc(C2C3C(=O)N(c4ccc(Br)cc4)C(=O)C3N3CCCN23)cc1 (centres undefined),-7.7
13,COc1cc(-c2nc3ccccn3c2/N=C/c2ccccc2)ccc1O,9.8
14,O=C1/C(=C/c2ccc(Br)o2)SC(=S)N1c1cccc(C(F)(F)F)c1,21.6
15,COc1ccc(Br)cc1C(=O)Nc1ccc(NC(=O)c2ccco2)cc1,-1.9
16,CC1(C)Cc2c(sc(/N=C/N3CCCCC3)c2C#N)C(C)(C)N1,-1.9
17,O=C(O)CCCN1C(=O)C(=O)/C(=C(/O)c2ccccc2)C1c1ccc(Cl)cc1Cl (centres undefined),-16.3
18,O=C(/C=C/c1ccccc1)NCc1ccc(Cl)cc1,-8.7
19,CC1=NN(c2nc(-c3ccccc3)cs2)C(=O)/C1=C\c1ccc(O)cc1,-18.8
20,O=C(O)c1ccc(CN2CCOCC2)o1,-5.7
21,CCOc1ccc(C(=O)Nc2cc(OC)ccc2OC)cc1Br,-9
